{
  "source": "PubChem BioAssay AID995",
  "about": "(National Center for Advancing Translational Sciences (NCATS), 2007)",
  "note": "Hit rate of the full screen: of about 72,000 compounds, about 710 (0.99%) were called active. Inconclusive results, whose numbers are uncertain, are shown with a selection of clear calls. Calls come from the whole dose curve; as a rule, active = well fitted inhibition curve with a large enough effect; inconclusive = small, poorly fitted or top-dose-only effect; inactive = no such curve, though single readings can be large or run the other way. Potencies of inconclusive entries are left out as doubtful fits. % is set by controls: 0 for no effect and ±100 for the full control effect; potency is the fitted concentration of half-maximal effect; tags give direction and shape of the fitted curve.",
  "data": [
    {"assay": "qHTS Assay for Inhibitors of the ERK Signaling Pathway using a Homogeneous Screening Assay; note: nearly all actives have a fitted effect of over 55% in size", "conditions": "HEK293-V1b, vasopressin-stimulated pERK AlphaScreen; activity, negative = inhibition: at 57.5 µM (top of the series) unless noted", "outline": "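V1b-HEK293 cells; cpd 30 min 37C; 25 nM vasopressin 5 min; lyse 10 min; AlphaScreen beads 5 hr RT. Normalized to DMSO basal and 25 nM vasopressin; AC50 by Hill fit.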", "values": [
      {"smiles": "Cc1ccc2c(c1)[nH]c1c(N3CCN(Cc4ccccc4)CC3)ncnc12", "Potency": "active: 15.8 µM"},
      {"smiles": "O=c1cc(-c2ccccc2)oc2cc(O)cc(O)c12", "Potency": "inconclusive [inhibitor, single point]"},
      {"smiles": "c1csc(CNc2ncnc3ccc(-c4ccc5c(c4)OCO5)cc23)c1", "Potency": "inconclusive [inhibitor, full curve]"},
      {"smiles": "CCn1c2ccccc2c2cc(C3C(C#N)=C(N)Oc4n[nH]c(COC)c43)ccc21", "note": "(centres undefined)", "Potency": "inconclusive [inhibitor, partial curve]"},
      {"smiles": "O=S(=O)(c1ccccc1)N1CCC2(CCCN(c3ncccn3)C2)CC1", "Potency": "inconclusive [inhibitor, single point]"},
      {"smiles": "Cc1cc(C(=O)CSc2nc(N)cc(N)n2)c(C)n1CCc1ccc(F)cc1", "Potency": "active: 12.6 µM"},
      {"smiles": "Cc1ccc2oc(-c3ccc(NC(=O)CC(C)C)cc3)nc2c1", "Potency": "inconclusive [inhibitor, full curve, poor fit]"},
      {"smiles": "O=C(COC(=O)Cn1cnc2ccccc21)NCCc1ccccc1", "Potency": "inconclusive [inhibitor, single point]"},
      {"smiles": "COC(=O)c1cccc(NCN2C(=O)c3ccccc3C2=O)c1", "Potency": "inconclusive [inhibitor, single point]"},
      {"smiles": "CN(C)C(=O)c1ccc(-c2ccc3ncnc(N(C)Cc4ccco4)c3c2)cc1", "Potency": "inconclusive [inhibitor, single point]"},
      {"smiles": "CCCCCn1c(=NC(=O)c2ccco2)c(C(=O)OCC)cc2c(=O)n3ccccc3nc21", "Potency": "inactive"},
      {"smiles": "Cc1nnc2n(Cc3ccccc3)c(=O)c3c4c(sc3n12)COC(C)(C)C4", "Potency": "inconclusive [inhibitor, single point]"},
      {"smiles": "CCc1cc2c(=O)c(Oc3ccccc3)c(C)oc2cc1O", "Potency": "inconclusive [inhibitor, single point]"},
      {"smiles": "COc1ccc(-c2csc(NCc3ccco3)n2)cc1C", "Potency": "inconclusive [inhibitor, partial curve]"},
      {"smiles": "O=C(CSc1nnc(Cc2cccs2)n1Cc1ccco1)Nc1cccc(Cl)c1", "Potency": "inconclusive [inhibitor, single point]"},
      {"smiles": "CC1CCC(NC(=O)C2CCN(C(=O)NC3CCCCC3)CC2)CC1", "note": "(centres undefined)", "Potency": "inconclusive [inhibitor, full curve, poor fit]"},
      {"smiles": "Cc1nn(-c2cc(N3CCCCC3)ccc2N)c(=O)c2ccccc12", "Potency": "inconclusive [inhibitor, partial curve]"},
      {"smiles": "COC(=O)Nc1ccc(S(=O)(=O)N2CCCC(C(=O)Nc3cccc4c3OCCO4)C2)cc1", "note": "(centres undefined)", "Potency": "inconclusive [inhibitor, full curve, poor fit]"},
      {"smiles": "CCC1Oc2ccc(C)cc2N(CC(=O)N(Cc2cccnc2)Cc2ccc(C)o2)C1=O", "note": "(centres undefined)", "Potency": "inactive"},
      {"smiles": "CN(C)S(=O)(=O)c1ccc(NC(=O)c2ccccn2)cc1", "Potency": "inconclusive [inhibitor, partial curve]"},
      {"smiles": "CCN(Cc1nc2ccccc2c(=O)[nH]1)Cc1nc2cc(OC)c(OC)cc2c(=O)[nH]1", "Potency": "inconclusive [inhibitor, partial curve]"},
      {"smiles": "Cc1nnc(SCC(=O)Nc2cc(C(F)(F)F)ccc2N2CCOCC2)o1", "Potency": "inconclusive [inhibitor, partial curve, poor fit]"},
      {"smiles": "CN(C)C(=O)c1ccc(-c2nc(Nc3ccccc3)c3ccccc3n2)cc1", "Potency": "inconclusive [inhibitor, single point]"},
      {"smiles": "CCOc1ccc(OCC)c(NC(=O)C2CCCN(c3ncccn3)C2)c1", "note": "(centres undefined)", "Potency": "inconclusive [inhibitor, single point]"},
      {"smiles": "CC1CN(C(=O)Nc2ccc3snnc3c2)c2ccccc21", "note": "(centres undefined)", "Potency": "inconclusive [inhibitor, single point]"},
      {"smiles": "COc1ccccc1NC(=O)C1(C)Cc2ccccc2C(=O)O1", "note": "(centres undefined)", "Potency": "inactive"},
      {"smiles": "O=C(CON1C(=O)c2ccccc2C1=O)c1ccccc1", "activity, negative = inhibition": "inactive: -1.27% [at 11.5 µM]"},
      {"smiles": "Cn1c(=O)c2c(nc(NC(Cc3ccccc3)C(=O)O)n2Cc2ccccc2)n(C)c1=O", "note": "(centres undefined)", "Potency": "inactive"},
      {"smiles": "COc1ccccc1-c1ccc2ncnc(N3CCNCC3)c2c1", "Potency": "inactive"},
      {"smiles": "CCOC(=O)C1=C(N)n2c(s/c(=C\\c3ccco3)c2=O)=C(C(=O)OCC)C1c1ccco1", "note": "(centres undefined)", "Potency": "inconclusive [inhibitor, partial curve]"},
      {"smiles": "O=C(O)/C=C\\c1c2ccc(=O)c(O)c-2oc2c(O)c(O)ccc12", "Potency": "inconclusive [inhibitor, partial curve]"},
      {"smiles": "Cc1ccc(C2Nc3ccccc3C(=O)N2Cc2ccco2)cc1", "note": "(centres undefined)", "Potency": "inconclusive [inhibitor, partial curve, poor fit]"},
      {"smiles": "CCc1ccccc1N(CC(=O)NCc1ccco1)C(=O)c1snc(C(N)=O)c1N", "Potency": "inconclusive [inhibitor, partial curve]"},
      {"smiles": "Cn1c(=O)c2c(nc(CN3CCN(C(=O)c4ccco4)CC3)n2Cc2cccc(Cl)c2)n(C)c1=O", "Potency": "inconclusive [inhibitor, partial curve]"},
      {"smiles": "COc1ccc2nc(NS(=O)(=O)c3ccc(NC(C)=O)cc3)sc2c1", "Potency": "inconclusive [inhibitor, single point]"},
      {"smiles": "CC(C)Sc1nc2c(c(=O)n(C)c(=O)n2C)n1C", "Potency": "inconclusive [inhibitor, partial curve]"},
      {"smiles": "N#Cc1c(SCC(N)=O)nc(-c2ccccc2)c2c1CCCC2", "Potency": "inactive"},
      {"smiles": "CC(=O)C1=C(C)NC(=O)NC1c1cccc(O)c1", "note": "(centres undefined)", "Potency": "inactive"},
      {"smiles": "COc1cccc(N2CCN(CC(=O)Nc3nnc(-c4ccccc4)s3)CC2)c1", "Potency": "inactive"},
      {"smiles": "CC1(C)NC(=O)N(CC(O)CN2CCOCC2)C1=O", "note": "(centres undefined)", "Potency": "inactive"},
      {"smiles": "COc1ccc(C(=O)O)cc1F", "Potency": "inconclusive [inhibitor, single point]"},
      {"smiles": "CC(=O)c1cccc(NC(=O)c2cc(C(C)C)on2)c1", "Potency": "inactive"},
      {"smiles": "COCCn1c(C(=O)N2CCCC2)cc2c1C[C@H]1CN(C(=O)c3ccccc3)[C@@](Cc3ccc(OC)cc3)(C(=O)OC)[C@@H]21", "Potency": "inactive"},
      {"smiles": "O=C1c2ccccc2C(Nc2ccc(-c3nc4ccccc4[nH]3)cc2)N1Cc1ccco1", "note": "(centres undefined)", "Potency": "inconclusive [inhibitor, partial curve]"}
    ]}
  ]
}
